# PubChem BioAssay (Tox21)
# This list was built around the results that the source calls inconclusive (neither active nor inactive); the mix of calls is not that of the screen. For some assays here: No potency is given beside an inconclusive call; the fits are too rough. Where a structure was tested more than once in an assay, its records may differ in their call. The source made the active and inactive calls. Unless noted, the call rests on the fitted dose curve; in most records, active means well fitted curve in the direction sought with a large enough effect in the repeat runs; inconclusive means weak or mixed curves; inactive means no such curve, though single readings can be large; an effect the other way counts as inactive or inconclusive.
# Key:
# [1] = qHTS RealTime-Glo MT Cell Viability Assay in HEK293 cells - 0 hour (AID 1224880); further: nearly all actives have a fitted effect of over 45% in size
# In short: (§1)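 Luminescence readout at each listed time point; HEK293, 600 cells/well, RealTime-Glo MT reagent added with cells; compounds pinned (23 nL in DMSO) after 5 h at 37 C; continuous culture at 37 C.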
# [2] = A CellTox Green Cytotoxicity Assay to monitor cytotoxicity in HepG2 cells - 32 hour (AID 1224883); further: nearly all actives have a fitted effect of over 50% in size
# In short: (§2)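 HepG2, 600 cells/well premixed w/ CellTox Green; 5 h settle, 37 C/5% CO2; pintool cpd add (DMSO); 37 C, 40 h; fluorescence read at 0, 8, 16, 24, 32, 40 h.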
# [3] = qHTS RealTime-Glo MT Cell Viability Assay in HepG2 cells - 0 hour (AID 1224889); further: nearly all actives have a fitted effect of over 50% in size
# In short: (§3)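 Luminescence read-out: viable HepG2 cells reduce a prosubstrate to a NanoLuc substrate, giving a signal proportional to live cell number. Reads taken at 0, 8, 16, 24, 32 and 40 h of compound exposure at 37 C.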
# [4] = qHTS RealTime-Glo MT Cell Viability Assay in HepG2 cells - 16 hour (AID 1224885); further: nearly all actives have a fitted effect of over 50% in size
# In short: as §3
# [5] = qHTS RealTime-Glo MT Cell Viability Assay in HEK293 cells - 8 hour (AID 1224887); further: nearly all actives have a fitted effect of over 50% in size
# In short: as §1
# [6] = target: Estrogen receptor (Homo sapiens) (UniProt P03372); test: qHTS assay to identify small molecule antagonists of the estrogen receptor alpha (ER-alpha) signaling pathway using the BG1 cell line in the presence of 0.1 nM 17-beta-estradiol (AID 1259244); further: nearly all actives have a fitted effect of over 50% in size
# In short: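 Luminescence after ONE-Glo (30 min, room temperature) measured ERE-luciferase activity in VM7Luc4E2 cells treated 22 h with compound and 0.1 nM final 17beta-estradiol as stimulator.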
# [7] = qHTS assay to identify small molecule HDAC inhibitors (AID 1259364);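 further: wild-type HCT-116 cells with endogenous class I/II HDAC activity; nearly all actives have a fitted effect of over 45% in size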
# In short: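 HCT-116 (wild type), 1,500 cells/well, overnight; compound 2 hr 37C 5% CO2; HDAC-Glo I/II reagent 30 min RT; luminescence readout.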
# [8] = qHTS assay to identify small molecule agonists of the sonic hedgehog signaling (Shh) pathway - cell viability counter screen (AID 1259366); further: nearly all actives have a fitted effect of over 50% in size
# In short: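 Stable Gli1-Luc NIH/3T3 clone, 2,000 cells/well. Compound exposure 24hr at 37C. Read-out: CellTiter-Fluor fluorescence.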
# [9] = qHTS assay to identify small molecule antagonists of the sonic hedgehog signaling (Shh) pathway - cell viability counter screen (AID 1259367); further: nearly all actives have a fitted effect of over 55% in size
# In short: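 Tox21 library chemicals were tested on a Gli1-Luc NIH/3T3 clone (2,000 cells/well) stimulated by conditioned medium; viability was quantified as fluorescence from CellTiter-Fluor reagent added at 23 hr.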
# [10] = A CellTox Green Cytotoxicity Assay to monitor cytotoxicity in HEK293 cells - 16 hour (AID 1224888); further: nearly all actives have a fitted effect of over 35% in size
# In short: (§4)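 Read-out: fluorescence of a cell-impermeant cyanine dye staining DNA of dead cells, proportional to cytotoxicity. HEK293, 600 cells/well with reagent, compound (23 nL DMSO) added after 5 h; reads at 0, 8, 16, 24, 32, 40 h.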
# [11] = qHTS assay to identify small molecule phospholipidosis (PLD) inducers (AID 1259344; active means well fitted curve in the direction sought with a large enough effect; inconclusive means small, poorly fitted or top-dose-only effect, or another doubt; inactive means no such curve, though single readings can be large; an effect the other way counts as inactive or inconclusive); conditions: HepG2 phospholipidosis, LipidTOX Red imaging, 24 h; series mostly up to 38.3 µM
# In short: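 Image-based: LipidTOX Red pit count/intensity per well and per cell; HepG2, 24 h compound at 37 C, PFA fixation, Hoechst counterstain.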
# [12] = qHTS assay to identify small molecule antagonists of the estrogen receptor alpha (ER-alpha) signaling pathway using the BG1 cell line in the presence of 0.1 nM 17-beta-estradiol - cell viability counter screen (AID 1259241); further: nearly all actives have a fitted effect of over 40% in size
# In short: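 Viability in VM7Luc4E2 cells after 22 hr compound exposure under 0.1 nM 17beta-estradiol stimulation, by CellTiter-Fluor.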
# [13] = qHTS assay to identify small molecule antagonists of the androgen receptor (AR) signaling pathway using the MDA cell line in the presence of 0.5 nM R1881 - cell viability counter screen (AID 1259242); further: nearly all actives have a fitted effect of over 45% in size
# In short: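 Live-cell protease fluorescence, CellTiter-Fluor, 30 min at 37C. Cells: MDA-kb2, 3,000/well, preincubated 5 hr. Compounds plus 0.5 nM R1881 final, 16 hr, 37C, 0% CO2.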
# [14] = qHTS RealTime-Glo MT Cell Viability Assay in HEK293 cells - 24 hour (AID 1224886); further: nearly all actives have a fitted effect of over 50% in size
# In short: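 Nonlytic real-time viability readout: viable cells convert prosubstrate to NanoLuc substrate, giving luminescence proportional to live cell number. HEK293, 600 cells/well, compound added after 5 h, continuous culture at 37 C.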
# [15] = A CellTox Green Cytotoxicity Assay to monitor cytotoxicity in HEK293 cells - 8 hour (AID 1224884); further: nearly all actives have a fitted effect of over 35% in size
# In short: as §4
# [16] = A CellTox Green Cytotoxicity Assay to monitor cytotoxicity in HepG2 cells - 8 hour (AID 1224890); further: nearly all actives have a fitted effect of over 45% in size
# In short: as §2
# [17] = target: Androgen receptor (Homo sapiens) (UniProt P10275); test: qHTS assay to identify small molecule antagonists of the androgen receptor (AR) signaling pathway using the MDA cell line in the presence of 0.5 nM R1881 (AID 1259243); further: nearly all actives have a fitted effect of over 50% in size
# In short: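 MDA-kb2, MMTV-luc (AR/GR elements); 3,000 cells/well; cpd + 0.5 nM R1881 final; 16 hr 37C, 0% CO2; ONE-Glo 30 min RT; luminescence.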
# Potency means the concentration at half of the fitted maximal effect; tags describe the fitted curve by direction and shape.
# Sequence of UniProt P03372 (P03372 whole entry, looked up): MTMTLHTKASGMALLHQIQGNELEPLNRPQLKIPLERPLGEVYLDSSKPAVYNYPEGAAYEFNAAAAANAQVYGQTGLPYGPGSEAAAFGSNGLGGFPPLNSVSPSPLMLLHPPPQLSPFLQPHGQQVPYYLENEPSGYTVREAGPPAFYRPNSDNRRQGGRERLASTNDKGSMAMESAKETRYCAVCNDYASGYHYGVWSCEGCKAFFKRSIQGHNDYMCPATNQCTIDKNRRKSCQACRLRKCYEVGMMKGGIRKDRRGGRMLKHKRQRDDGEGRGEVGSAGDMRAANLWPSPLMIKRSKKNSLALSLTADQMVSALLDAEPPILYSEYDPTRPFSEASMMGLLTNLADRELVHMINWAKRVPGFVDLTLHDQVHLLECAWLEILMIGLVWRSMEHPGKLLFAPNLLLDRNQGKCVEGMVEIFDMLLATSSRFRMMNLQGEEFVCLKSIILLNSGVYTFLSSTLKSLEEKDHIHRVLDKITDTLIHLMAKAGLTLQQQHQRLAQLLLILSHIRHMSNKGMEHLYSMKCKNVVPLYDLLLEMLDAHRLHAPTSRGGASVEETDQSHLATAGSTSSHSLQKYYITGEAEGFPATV
# Sequence of UniProt P10275 (P10275 whole entry, looked up): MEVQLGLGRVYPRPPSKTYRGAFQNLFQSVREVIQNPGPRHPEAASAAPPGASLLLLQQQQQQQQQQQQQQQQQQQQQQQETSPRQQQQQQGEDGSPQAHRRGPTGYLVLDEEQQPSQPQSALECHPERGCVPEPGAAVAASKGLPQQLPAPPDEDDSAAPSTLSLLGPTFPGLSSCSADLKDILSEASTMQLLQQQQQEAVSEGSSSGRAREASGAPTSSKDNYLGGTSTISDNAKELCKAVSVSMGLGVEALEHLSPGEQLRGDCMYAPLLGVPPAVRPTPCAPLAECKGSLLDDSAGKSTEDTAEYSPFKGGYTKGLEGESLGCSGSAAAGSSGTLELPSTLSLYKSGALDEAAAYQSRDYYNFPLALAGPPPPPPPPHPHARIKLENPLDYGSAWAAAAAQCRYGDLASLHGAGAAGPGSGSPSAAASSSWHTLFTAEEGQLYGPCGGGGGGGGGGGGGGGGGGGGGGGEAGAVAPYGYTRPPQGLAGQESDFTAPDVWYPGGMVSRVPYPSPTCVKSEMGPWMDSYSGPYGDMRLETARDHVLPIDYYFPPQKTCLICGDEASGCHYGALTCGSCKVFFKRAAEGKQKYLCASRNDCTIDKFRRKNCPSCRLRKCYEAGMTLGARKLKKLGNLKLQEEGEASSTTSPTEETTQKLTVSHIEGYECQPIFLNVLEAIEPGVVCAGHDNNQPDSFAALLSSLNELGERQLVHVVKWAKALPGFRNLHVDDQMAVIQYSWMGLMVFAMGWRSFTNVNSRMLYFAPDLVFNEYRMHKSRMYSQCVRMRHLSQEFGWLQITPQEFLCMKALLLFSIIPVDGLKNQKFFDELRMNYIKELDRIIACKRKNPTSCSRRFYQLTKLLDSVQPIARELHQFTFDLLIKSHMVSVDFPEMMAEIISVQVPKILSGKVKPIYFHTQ
structure (smiles),measurement,setting,value
CCCCOC(=O)c1ccc(N)cc1,Potency,[1],inactive
same,Potency,[2],"inconclusive [activator, single point]"
same,Potency,[3],active: 24.2 µM
NC(=O)Cn1c(=O)cc(CCN2CCN(c3nccc4sccc34)CC2)c2ccc(F)cc21,Potency,[1],"inconclusive [falling, partial curve, poor fit]"
same,Potency,[4],"inconclusive [cytotoxic, partial curve]"
same,Potency,[5],"inconclusive [cytotoxic, partial curve]"
same,Potency,[3],active: 13.8 µM
same,Potency,[6],inconclusive [inhibitor]
same,Potency,[7],"inconclusive [inhibitor, partial curve, poor fit]"
same,Potency,[8],"inconclusive [cytotoxic, single point]"
same,Potency,[9],"inconclusive [cytotoxic, partial curve]"
CCCCCCCCCCCCCCCC(=O)O,Potency,[1],inactive
same,Potency,[10],"inconclusive [activator, single point]"
CC1CCC(C(C)C)C(O)C1 (stereo not given),Potency,[1],inactive
same,Potency,[5],inactive
CN(C)CCCN1c2ccccc2Sc2ccccc21,Potency,[1],"inconclusive [rising, partial curve]"
same,Potency,[2],active: 23.9 µM
same,Potency,[5],inactive
same,Potency,[3],"inconclusive [rising, full curve, poor fit]"
same,Potency,[11],"inconclusive [activator, single point]"
same,Potency,[8],"inconclusive [cytotoxic, full curve]"
same,Potency,[9],"inconclusive [cytotoxic, full curve]"
CCCCCC/C=C/C=O,Potency,[1],"inconclusive [rising, single point]"
same,Potency,[2],"inconclusive [activator, partial curve, poor fit]"
same,Potency,[3],inactive
same,Potency,[7],inactive
CCN(CC)c1ccc(N=Nc2ccccc2)cc1,Potency,[1],"inconclusive [falling, single point]"
same,Potency,[5],active: 43.6 µM
same,Potency,[3],inactive
same,Potency,[12],"inconclusive [cytotoxic, partial curve]"
same,Potency,[13],"inconclusive [cytotoxic, partial curve]"
Cc1nc2sccn2c(=O)c1CCN1CCC(=C(c2ccc(F)cc2)c2ccc(F)cc2)CC1,Potency,[1],"inconclusive [falling, single point]"
same,Potency,[14],active: 3.38 µM
same,Potency,[6],"inconclusive [inhibitor, partial curve]"
same,Potency,[11],"inconclusive [activator, single point]"
Cc1nn(C)c(Oc2ccccc2)c1/C=N/OCc1ccc(C(=O)OC(C)(C)C)cc1,Potency,[1],inactive
same,Potency,[10],inactive
same,Potency,[12],active: 0.0137 µM
same,Potency,[13],"inconclusive [cytotoxic, full curve]"
same,Potency,[6],active: 0.0122 µM
CC1=CCC2CC1C2(C)C (stereo not given),Potency,[1],inactive
same,Potency,[15],"inconclusive [activator, single point]"
same,Potency,[10],"inconclusive [activator, single point]"
same,Potency,[9],inactive
CC(=O)OCC(=O)[C@@]1(O)CC[C@H]2[C@@H]3CCC4=CC(=O)C=C[C@]4(C)[C@@]3(F)[C@@H](O)C[C@@]21C,Potency,[1],active: 7.56 µM
same,Potency,[14],inactive
same,Potency,[3],active: 3.01 µM
CN(C)CCCOc1nn(Cc2ccccc2)c2ccccc12,Potency,[1],"inconclusive [falling, partial curve, poor fit]"
same,Potency,[2],"inconclusive [activator, single point]"
same,Potency,[8],"inconclusive [cytotoxic, partial curve]"
CCCCCCCCCCCCOCCO,Potency,[1],inactive
same,Potency,[2],"inconclusive [activator, single point]"
same,Potency,[8],"inconclusive [cytotoxic, single point]"
O=C(/C=C/c1ccccc1)NCCO,Potency,[1],inactive
same,Potency,[2],active: 8.49 µM
same,Potency,[5],inactive
same,Potency,[10],active: 8.49 µM
same,Potency,[7],"inconclusive [inhibitor, partial curve, poor fit]"
OC(CN1CCC(Cc2ccc(F)cc2)CC1)c1ccc(Cl)cc1 (stereo not given),Potency,[1],"inconclusive [rising, partial curve, poor fit]"
same,Potency,[4],"inconclusive [cytotoxic, partial curve]"
same,Potency,[5],active: 16.9 µM
same,Potency,[10],"inconclusive [activator, single point]"
same,Potency,[16],"inconclusive [activator, partial curve, poor fit]"
same,Potency,[13],"inconclusive [cytotoxic, partial curve]"
same,Potency,[17],active: 29.8 µM
